Data reported in the BET-seq Pho4 binding data (Le et al. 2018).
The other results are listed elsewhere or left out. Values were computed here from the reads of four pooled replicates and scatter widely.

molecular target: T1, Pho4 (S. cerevisiae) (UniProt P07270); test: relative binding free energy (BET-seq); higher = weaker binding; conditions: reference: library average
T1 sequence: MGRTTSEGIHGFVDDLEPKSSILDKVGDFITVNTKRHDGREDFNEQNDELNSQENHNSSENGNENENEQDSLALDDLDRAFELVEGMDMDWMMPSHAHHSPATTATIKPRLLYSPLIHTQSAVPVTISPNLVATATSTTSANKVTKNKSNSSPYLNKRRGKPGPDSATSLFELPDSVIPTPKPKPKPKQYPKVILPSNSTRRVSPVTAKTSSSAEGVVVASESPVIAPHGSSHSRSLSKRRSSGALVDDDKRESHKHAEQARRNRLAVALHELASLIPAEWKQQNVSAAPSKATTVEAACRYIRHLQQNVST

Sequence	relative binding free energy [kcal/mol]
TGGGTCACGTGAGTAT	0.33
CGATTCACGTGATGAT	0.43
GTTCACACGTGGGGGG	-0.04
AGGTGCACGTGTACGG	-0.02
CTCGTCACGTGTATTT	0.22
AATGTCACGTGTTGAA	0.1
ATTTACACGTGAGAGG	0.27
TAACACACGTGGGGGG	-0.22
AGGGGCACGTGGGGAC	-0.14
CAGGTCACGTGGGTAG	-0.01
GAAGTCACGTGGGCAG	0.12
AGGAGCACGTGTGGGC	-0.07
TAAAGCACGTGTTGTA	-0.13
AGATCCACGTGGGAAG	0.08
ATGCTCACGTGAGGGT	0.3
GCTGACACGTGCGGGT	0.06
AGTGGCACGTGAAACG	0.16
TATTGCACGTGGGTGT	-0.23
TATGGCACGTGTCTCG	-0.02
GAGGGCACGTGGGGCC	-0.21

Sequence	relative binding free energy [kcal/mol]
TTCTACACGTGTGTAG	0.22
GTGGACACGTGGACGT	0.05
TTGGACACGTGGTCGC	0.04
CTAATCACGTGGAGGT	0.14
AAGTGCACGTGATGAG	0.13
TTATTCACGTGCGGGC	0.34
GTGGTCACGTGGCAGG	0.06
ATCGTCACGTGGTCTT	0.23
GTTTCCACGTGGGGCT	-0.01
TCGGGCACGTGGTTGT	-0.12
GTTGACACGTGGGGGG	-0.09
GATCTCACGTGGCGTG	0.26
GGAAACACGTGGGTAA	-0.04
GGATGCACGTGGTAGT	0
GTGTGCACGTGTGTTC	0.03
AATCGCACGTGCTGTG	0.02
TTGCGCACGTGGTGGT	-0.19
AGGAGCACGTGTTGGG	-0.17
ATGTGCACGTGTAAGG	0.14
AGGTTCACGTGGGCGG	0.12

Sequence	relative binding free energy [kcal/mol]
CGTTACACGTGGTTAT	-0.05
AATATCACGTGGGTAA	-0.06
CGTGGCACGTGTGCTA	-0.04
AAAGTCACGTGGTAAG	0.03
TGGTTCACGTGAGCCG	0.38
TCCTGCACGTGGTGGT	-0.13
GGGGACACGTGCGTAG	0.04
CGTGACACGTGGCAGG	-0.1
TTTTCCACGTGGTTTA	-0.06
GGTTGCACGTGGATGA	0.07
CTTTTCACGTGTTTTG	0.18
CAGGACACGTGTAGTG	-0.04
GTTTTCACGTGTTGTA	0.34
CTGTTCACGTGATTGG	0.3
AGATTCACGTGTCAGG	0.4
GATGACACGTGAGGGC	0.29
CTAGTCACGTGTTATG	0.17
AATATCACGTGTGAGT	0.12
